Molecules are shown by their SMILES. Out of some 310,000 compounds screened, about 2,200 (0.71%) showed an effect of 50% or more. Effects have a minus sign here. The list shows a part of the results.

human ether-à-go-go-related gene (hERG) potassium channel, sequence (Q12809 whole entry, looked up): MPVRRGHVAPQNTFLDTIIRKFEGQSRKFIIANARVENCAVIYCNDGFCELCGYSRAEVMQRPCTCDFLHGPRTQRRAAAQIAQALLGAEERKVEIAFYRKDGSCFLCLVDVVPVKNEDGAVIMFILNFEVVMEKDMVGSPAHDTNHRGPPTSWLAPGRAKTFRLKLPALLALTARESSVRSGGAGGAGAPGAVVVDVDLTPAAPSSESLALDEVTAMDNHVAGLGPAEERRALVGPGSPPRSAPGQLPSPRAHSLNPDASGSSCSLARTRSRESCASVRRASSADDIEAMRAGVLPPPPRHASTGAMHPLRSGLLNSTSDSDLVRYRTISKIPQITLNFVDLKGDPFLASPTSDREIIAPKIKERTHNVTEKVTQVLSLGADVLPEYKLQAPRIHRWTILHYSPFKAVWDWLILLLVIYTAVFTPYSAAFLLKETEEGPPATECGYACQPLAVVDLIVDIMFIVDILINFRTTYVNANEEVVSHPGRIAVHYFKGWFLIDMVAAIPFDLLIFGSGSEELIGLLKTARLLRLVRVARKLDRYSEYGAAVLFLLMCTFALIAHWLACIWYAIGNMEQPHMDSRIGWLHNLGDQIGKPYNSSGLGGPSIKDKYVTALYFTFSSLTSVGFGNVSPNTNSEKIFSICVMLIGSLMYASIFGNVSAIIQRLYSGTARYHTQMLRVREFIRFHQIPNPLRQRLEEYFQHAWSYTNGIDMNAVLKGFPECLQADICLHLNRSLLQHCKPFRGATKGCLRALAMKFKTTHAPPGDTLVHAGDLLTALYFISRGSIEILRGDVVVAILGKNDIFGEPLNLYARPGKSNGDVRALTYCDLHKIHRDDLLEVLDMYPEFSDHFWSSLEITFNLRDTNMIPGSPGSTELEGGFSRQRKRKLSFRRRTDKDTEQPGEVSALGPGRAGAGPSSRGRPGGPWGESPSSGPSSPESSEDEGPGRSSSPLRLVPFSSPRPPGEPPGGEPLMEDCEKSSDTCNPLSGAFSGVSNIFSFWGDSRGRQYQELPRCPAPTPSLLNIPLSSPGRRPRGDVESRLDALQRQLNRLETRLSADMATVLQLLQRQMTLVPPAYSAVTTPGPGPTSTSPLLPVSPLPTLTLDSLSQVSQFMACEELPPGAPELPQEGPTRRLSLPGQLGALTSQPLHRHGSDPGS

This assay addresses human ether-à-go-go-related gene (hERG) potassium channel (human, UniProt Q12809). The experiment in a line: primary screen, population patch clamp on CHO cells stably expressing hERG.
Regarding `CC(=O)Nc1ccc(N2CCc3c(C)c(C#N)c4nc5ccccc5n4c32)cc1`, the “hERG current change (%, negative = inhibition) at 1uM” value was determined as 10.3%.

With `Cn1c2ccc(F)cc2c2ncn(CCCN(CCO)CCO)c(=O)c21`, the “hERG current change (%, negative = inhibition) at 1uM” value is -13.9%.

In the case of `CCOC(=O)C/C(C)=N\Nc1ccc([N+](=O)[O-])cc1[N+](=O)[O-]`, the “hERG current change (%, negative = inhibition) at 1uM” value came to 0.973%.

Turning to `NC(=O)CC[C@@H]1NC(=O)[C@H](CO)NC(=O)c2cc([N+](=O)[O-])cc(I)c2NCCCC[C@@H](C(N)=O)NC(=O)[C@H](Cc2ccc(O)cc2)NC1=O`, the “hERG current change (%, negative = inhibition) at 1uM” value was 7.25%.

For `CCOC(=O)c1c(NC(=O)c2cccs2)sc2c1CCN(C(=O)OCC)C2`, the “hERG current change (%, negative = inhibition) at 1uM” value is -5.88%.

With `CC(C)c1ccc(CN(C)C(=O)c2ccc(S(=O)(=O)NCc3ccco3)cc2)cc1`, the “hERG current change (%, negative = inhibition) at 1uM” value came out at 5.28%.

As to `CCC(=O)NNc1ncnc2ccccc12`, the “hERG current change (%, negative = inhibition) at 1uM” value came to 8.52%.

`O=C(NCCN1CCCCCC1)C1CCCN1S(=O)(=O)c1cccc2nsnc12` (stereo not shown): the “hERG current change (%, negative = inhibition) at 1uM” value was 7.05%.

As to `CCc1cc2cc(C(=O)N3CCN(c4ccccc4)CC3)sc2s1`, the “hERG current change (%, negative = inhibition) at 1uM” value is 12.3%.

Regarding `CCNC(=O)Nc1ccccc1C(=O)OC`, the “hERG current change (%, negative = inhibition) at 1uM” value was determined as 14.9%.

For the compound `O=C(CSC1CCCCC1)N1CCN(c2ccccc2)CC1`, the “hERG current change (%, negative = inhibition) at 1uM” value was 10.9%.

Take `COC(=O)CSc1ccc(S(=O)(=O)N2CCOCC2)cc1[N+](=O)[O-]`: the “hERG current change (%, negative = inhibition) at 1uM” value was found to be 6.98%.

As to `CCn1cc(C2=NCC(C)O2)c2ccccc21` (stereo not shown), the “hERG current change (%, negative = inhibition) at 1uM” value is given as 4.87%.

Consider `Cc1cc(C)c(OCC(=O)Nc2ccc(S(=O)(=O)N3CCCC3)cc2)c(C)c1`, for which the “hERG current change (%, negative = inhibition) at 1uM” value is listed as -11.3%.

With `O=C(Cc1ccccc1)NC(=S)Nc1ccc2oc(-c3ccccc3)nc2c1`, the “hERG current change (%, negative = inhibition) at 1uM” value is 8.31%.

Regarding `CCOC(=O)CNC(=O)CSc1nc2cccnc2n1C1CCCCC1`, the “hERG current change (%, negative = inhibition) at 1uM” value is on record as 13.2%.

As to `O=C(COC(=O)CN1C(=O)C(=O)c2ccccc21)OCN1C(=O)c2ccccc2C1=O`, the “hERG current change (%, negative = inhibition) at 1uM” value is reported as -5.15%.

For the compound `O=[N+]([O-])c1ccc(C2=Nn3c(Cn4nnc5ccccc54)nnc3SC2)cc1`, the “hERG current change (%, negative = inhibition) at 1uM” value is -3.66%.

As to `COc1ccc(OCC(=O)Nc2ccc(N3CCC(C)CC3)cc2)cc1`, the “hERG current change (%, negative = inhibition) at 1uM” value is given as 11.6%.

For the compound `CCC(=O)Nc1ccc(Cl)c(-c2nc3ncccc3o2)c1`, the “hERG current change (%, negative = inhibition) at 1uM” value is listed as 2.63%.

In the case of `O=C(O)CCn1cc(/C=C2\NC(=S)N(c3ccccc3)C2=O)c(-c2ccc(Br)cc2)n1`, the “hERG current change (%, negative = inhibition) at 1uM” value came to 17.8%.

With `CC(Oc1ccccc1F)c1ccnc2nc(/N=C/N(C)C)nn12` (stereo not shown), the “hERG current change (%, negative = inhibition) at 1uM” value turned out to be 6.48%.

`CC(C)Nc1ncnc2c1nnn2Cc1ccccc1`: the “hERG current change (%, negative = inhibition) at 1uM” value was 12.5%.

Regarding `CC12CCC(C(=O)NCc3ccco3)(OC1=O)C2(C)C` (stereo not shown), the “hERG current change (%, negative = inhibition) at 1uM” value was 6.55%.

As for `Cc1cccc(C)c1NC(=O)CNC(=O)c1cn(-c2ccccc2)nc1-c1ccccc1`, the “hERG current change (%, negative = inhibition) at 1uM” value is recorded as 12.4%.

For the compound `Cc1cc(=O)oc2cc(OCC(=O)NCCN3CCOCC3)ccc12`, the “hERG current change (%, negative = inhibition) at 1uM” value turned out to be 16%.

For `O=C(Nc1ccc(Cl)cc1)N1CCN(c2ccc3nnc(-c4ccc(F)cc4)n3n2)CC1`, the “hERG current change (%, negative = inhibition) at 1uM” value is 11.5%.

On to `CC1=C(C(=O)N2CCCC(N3CCN(c4ccccc4F)CC3)C2)OCCO1` (stereo not shown), for which the “hERG current change (%, negative = inhibition) at 1uM” value stood at 13.3%.

In the case of `CC(=O)c1ccc(OCC(=O)Nc2ccc3nc(C)sc3c2)cc1`, the “hERG current change (%, negative = inhibition) at 1uM” value came to 5.62%.

On to `CCOc1ccc(NC(=O)C(=O)NCCN2CCN(S(=O)(=O)c3ccc(C)cc3)CC2)cc1`, for which the “hERG current change (%, negative = inhibition) at 1uM” value came to 11.6%.

As to `CCCNc1c(NS(=O)(=O)c2cccc(C#N)c2)c(=O)oc2ccccc12`, the “hERG current change (%, negative = inhibition) at 1uM” value is -39.7%.

Regarding `COC(=O)CN1C(=O)C2(C(C#N)=C(N)Oc3n[nH]c(-c4cccs4)c32)c2ccccc21` (stereo not shown), the “hERG current change (%, negative = inhibition) at 1uM” value was 5.2%.

`COC(=O)c1oc(-c2ccc(Cl)cc2)nc1C`: the “hERG current change (%, negative = inhibition) at 1uM” value was 8.82%.

With `CC[C@]12CCCN3CCc4c(n(c5ccccc45)[C@](O)(C(=O)OC)C1)[C@@H]32`, the “hERG current change (%, negative = inhibition) at 1uM” value is -69.4%.

Take `O=C(Nc1ccc(Cl)c(C(F)(F)F)c1)c1ccncc1`: the “hERG current change (%, negative = inhibition) at 1uM” value is 8.86%.

Consider `COc1cc(C(=O)Nc2sc3c(c2C#N)CCN(C(C)=O)C3)cc(OC)c1OC`, for which the “hERG current change (%, negative = inhibition) at 1uM” value is on record as 10.4%.

As for `COc1cc(C2C3=C(CC(C)(C)CC3=O)Nc3c2c(=O)[nH]c(=O)n3Cc2ccccc2)ccc1O` (stereo not shown), the “hERG current change (%, negative = inhibition) at 1uM” value amounted to 1.5%.

For the compound `COc1cc(CNCCc2c[nH]c3ccccc23)cc(Cl)c1OCC(N)=O.Cl`, the “hERG current change (%, negative = inhibition) at 1uM” value is recorded as -1.47%.

For the compound `CC(Nc1ncnc2sccc12)c1ccccc1` (stereo not shown), the “hERG current change (%, negative = inhibition) at 1uM” value turned out to be 13%.

With `CC1CCCC(C)N1C(=O)COC(=O)CNC(=O)c1sc2ccccc2c1Cl` (stereo not shown), the “hERG current change (%, negative = inhibition) at 1uM” value was -5.15%.

For `Cc1ccc(C(C(=O)NC(C)(C)C)N(Cc2ccco2)C(=O)Cn2nnc(-c3cccs3)n2)cc1` (stereo not shown), the “hERG current change (%, negative = inhibition) at 1uM” value was 18.3%.

As to `CSc1ccccc1C(=O)NC1CCSc2ccccc21` (stereo not shown), the “hERG current change (%, negative = inhibition) at 1uM” value came to 4.6%.

Regarding `O=C(COC(=O)c1ccccc1C(=O)N1CCN(c2ccccc2)CC1)Nc1ccccc1`, the “hERG current change (%, negative = inhibition) at 1uM” value is given as 6.1%.

These data come from PMC4336329 (PLoS ONE, 2015).
